Laboratory results reported in publication PMC5855953.
These are yes or no findings as the source states them, for the method shown. In cells and extracts the contact can be indirect. Some results given as binding are weak or reduced against the parent protein; the word gives no strength.

Sequences of proteins named here, by UniProt entry; tags and fusion partners are left off.
UniProt A1ZAW0: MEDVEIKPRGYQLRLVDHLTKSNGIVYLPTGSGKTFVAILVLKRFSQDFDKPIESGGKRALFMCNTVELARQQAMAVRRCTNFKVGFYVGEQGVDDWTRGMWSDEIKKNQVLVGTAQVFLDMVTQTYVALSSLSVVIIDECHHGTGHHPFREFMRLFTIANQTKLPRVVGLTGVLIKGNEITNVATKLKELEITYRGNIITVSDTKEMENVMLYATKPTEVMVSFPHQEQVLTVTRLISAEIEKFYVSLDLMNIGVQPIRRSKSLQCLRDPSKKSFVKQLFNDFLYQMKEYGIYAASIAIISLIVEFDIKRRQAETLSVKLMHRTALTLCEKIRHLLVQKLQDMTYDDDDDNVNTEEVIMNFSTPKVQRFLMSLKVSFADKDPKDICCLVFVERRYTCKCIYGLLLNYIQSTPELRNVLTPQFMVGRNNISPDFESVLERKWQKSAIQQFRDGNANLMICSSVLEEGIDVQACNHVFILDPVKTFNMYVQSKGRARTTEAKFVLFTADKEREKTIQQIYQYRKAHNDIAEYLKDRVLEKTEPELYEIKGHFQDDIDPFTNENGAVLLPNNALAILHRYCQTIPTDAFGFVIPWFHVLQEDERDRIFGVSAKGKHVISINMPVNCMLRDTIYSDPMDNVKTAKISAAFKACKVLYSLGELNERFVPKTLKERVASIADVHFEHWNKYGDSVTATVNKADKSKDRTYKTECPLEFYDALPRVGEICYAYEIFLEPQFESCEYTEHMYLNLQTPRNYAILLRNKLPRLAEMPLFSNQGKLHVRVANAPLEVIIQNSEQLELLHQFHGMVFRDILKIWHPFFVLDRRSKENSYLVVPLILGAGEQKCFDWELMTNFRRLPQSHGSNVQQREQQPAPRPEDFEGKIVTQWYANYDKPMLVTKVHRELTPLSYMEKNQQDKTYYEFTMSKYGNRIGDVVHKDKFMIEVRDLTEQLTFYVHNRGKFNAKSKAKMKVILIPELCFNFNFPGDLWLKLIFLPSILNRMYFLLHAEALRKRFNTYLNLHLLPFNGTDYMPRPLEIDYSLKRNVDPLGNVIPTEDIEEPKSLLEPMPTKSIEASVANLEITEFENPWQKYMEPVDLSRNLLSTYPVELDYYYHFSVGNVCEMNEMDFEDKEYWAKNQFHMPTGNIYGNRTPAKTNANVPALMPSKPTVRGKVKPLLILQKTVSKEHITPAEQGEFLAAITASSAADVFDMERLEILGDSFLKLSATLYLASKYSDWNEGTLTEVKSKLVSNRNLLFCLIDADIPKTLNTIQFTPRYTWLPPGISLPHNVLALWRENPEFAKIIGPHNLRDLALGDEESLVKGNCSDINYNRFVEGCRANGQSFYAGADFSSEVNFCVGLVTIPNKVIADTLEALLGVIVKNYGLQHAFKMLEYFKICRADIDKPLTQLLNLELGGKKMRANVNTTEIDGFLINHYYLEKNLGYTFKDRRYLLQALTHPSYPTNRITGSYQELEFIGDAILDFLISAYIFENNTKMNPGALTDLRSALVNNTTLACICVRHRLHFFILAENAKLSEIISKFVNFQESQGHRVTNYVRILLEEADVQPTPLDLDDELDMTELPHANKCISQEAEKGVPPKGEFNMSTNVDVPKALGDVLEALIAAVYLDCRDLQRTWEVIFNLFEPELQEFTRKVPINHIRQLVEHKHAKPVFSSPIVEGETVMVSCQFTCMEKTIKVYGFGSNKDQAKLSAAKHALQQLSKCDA

T1: Wispy (Drosophila melanogaster (endogenous in 90 min embryos)) (UniProt Q9VYS4)
T1 sequence: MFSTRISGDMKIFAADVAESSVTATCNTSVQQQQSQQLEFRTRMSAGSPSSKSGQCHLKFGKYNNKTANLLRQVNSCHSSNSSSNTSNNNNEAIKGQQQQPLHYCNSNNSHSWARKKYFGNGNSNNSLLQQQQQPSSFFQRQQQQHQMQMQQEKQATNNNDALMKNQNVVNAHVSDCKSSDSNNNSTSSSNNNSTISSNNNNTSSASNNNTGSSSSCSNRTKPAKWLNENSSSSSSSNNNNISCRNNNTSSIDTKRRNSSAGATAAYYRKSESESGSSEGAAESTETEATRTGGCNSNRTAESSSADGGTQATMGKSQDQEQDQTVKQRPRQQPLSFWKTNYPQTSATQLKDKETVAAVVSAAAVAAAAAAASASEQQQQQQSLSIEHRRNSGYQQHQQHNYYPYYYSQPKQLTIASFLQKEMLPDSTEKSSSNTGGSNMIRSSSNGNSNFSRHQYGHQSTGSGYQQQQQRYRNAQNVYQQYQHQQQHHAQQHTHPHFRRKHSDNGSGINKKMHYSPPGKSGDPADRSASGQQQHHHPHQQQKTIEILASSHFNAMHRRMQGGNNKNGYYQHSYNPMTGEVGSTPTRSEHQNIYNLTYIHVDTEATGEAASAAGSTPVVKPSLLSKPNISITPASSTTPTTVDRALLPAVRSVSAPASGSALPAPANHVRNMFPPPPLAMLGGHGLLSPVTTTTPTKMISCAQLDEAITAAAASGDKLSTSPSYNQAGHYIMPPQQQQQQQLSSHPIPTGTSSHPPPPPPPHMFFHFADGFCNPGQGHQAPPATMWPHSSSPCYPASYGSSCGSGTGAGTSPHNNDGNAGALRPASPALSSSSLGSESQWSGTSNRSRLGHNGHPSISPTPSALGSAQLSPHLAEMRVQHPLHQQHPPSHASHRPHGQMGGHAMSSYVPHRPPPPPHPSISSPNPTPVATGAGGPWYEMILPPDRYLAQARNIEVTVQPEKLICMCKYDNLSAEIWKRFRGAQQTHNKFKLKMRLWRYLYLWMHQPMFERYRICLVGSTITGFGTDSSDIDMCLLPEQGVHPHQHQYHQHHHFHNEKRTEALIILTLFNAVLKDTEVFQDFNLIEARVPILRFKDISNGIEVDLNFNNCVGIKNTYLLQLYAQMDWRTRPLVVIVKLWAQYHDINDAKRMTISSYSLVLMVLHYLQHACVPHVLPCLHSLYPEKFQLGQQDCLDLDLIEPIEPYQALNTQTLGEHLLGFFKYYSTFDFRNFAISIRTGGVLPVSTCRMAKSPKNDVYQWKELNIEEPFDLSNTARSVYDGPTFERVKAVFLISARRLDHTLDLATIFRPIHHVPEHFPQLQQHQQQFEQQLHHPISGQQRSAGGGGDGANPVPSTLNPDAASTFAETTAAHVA


Each molecule was assayed against Dicer-2 (Drosophila melanogaster (endogenous in 90 min embryos)) (UniProt A1ZAW0) (assay: co-IP; endogenous proteins; 150 µg Drosophila 90 min embryo extract with antibody on Protein A Dynabeads, 1 h at 4°C in 1× NET buffer (50 mM TRIS-HCl pH 7.5, 150 mM NaCl, 0.1% NP40, 1 mM EDTA); pellets treated or not with 10 µg RNase A; western blot; controls: dcr-2 null extract, nonspecific IgG).

| binding | Molecule |
| --- | --- |
| binds | Wispy (enzyme, UniProt Q9VYS4 1-1373) MFSTRISGDMKIFAADVAESSVTATCNTSVQQQQSQQLEFRTRMSAGSPSSKSGQCHLKFGKYNNKTANLLRQVNSCHSSNSSSNTSNNNNEAIKGQQQQPLHYCNSNNSHSWARKKYFGNGNSNNSLLQQQQQPSSFFQRQQQQHQMQMQQEKQATNNNDALMKNQNVVNAHVSDCKSSDSNNNSTSSSNNNSTISSNNNNTSSASNNNTGSSSSCSNRTKPAKWLNENSSSSSSSNNNNISCRNNNTSSIDTKRRNSSAGATAAYYRKSESESGSSEGAAESTETEATRTGGCNSNRTAESSSADGGTQATMGKSQDQEQDQTVKQRPRQQPLSFWKTNYPQTSATQLKDKETVAAVVSAAAVAAAAAAASASEQQQQQQSLSIEHRRNSGYQQHQQHNYYPYYYSQPKQLTIASFLQKEMLPDSTEKSSSNTGGSNMIRSSSNGNSNFSRHQYGHQSTGSGYQQQQQRYRNAQNVYQQYQHQQQHHAQQHTHPHFRRKHSDNGSGINKKMHYSPPGKSGDPADRSASGQQQHHHPHQQQKTIEILASSHFNAMHRRMQGGNNKNGYYQHSYNPMTGEVGSTPTRSEHQNIYNLTYIHVDTEATGEAASAAGSTPVVKPSLLSKPNISITPASSTTPTTVDRALLPAVRSVSAPASGSALPAPANHVRNMFPPPPLAMLGGHGLLSPVTTTTPTKMISCAQLDEAITAAAASGDKLSTSPSYNQAGHYIMPPQQQQQQQLSSHPIPTGTSSHPPPPPPPHMFFHFADGFCNPGQGHQAPPATMWPHSSSPCYPASYGSSCGSGTGAGTSPHNNDGNAGALRPASPALSSSSLGSESQWSGTSNRSRLGHNGHPSISPTPSALGSAQLSPHLAEMRVQHPLHQQHPPSHASHRPHGQMGGHAMSSYVPHRPPPPPHPSISSPNPTPVATGAGGPWYEMILPPDRYLAQARNIEVTVQPEKLICMCKYDNLSAEIWKRFRGAQQTHNKFKLKMRLWRYLYLWMHQPMFERYRICLVGSTITGFGTDSSDIDMCLLPEQGVHPHQHQYHQHHHFHNEKRTEALIILTLFNAVLKDTEVFQDFNLIEARVPILRFKDISNGIEVDLNFNNCVGIKNTYLLQLYAQMDWRTRPLVVIVKLWAQYHDINDAKRMTISSYSLVLMVLHYLQHACVPHVLPCLHSLYPEKFQLGQQDCLDLDLIEPIEPYQALNTQTLGEHLLGFFKYYSTFDFRNFAISIRTGGVLPVSTCRMAKSPKNDVYQWKELNIEEPFDLSNTARSVYDGPTFERVKAVFLISARRLDHTLDLATIFRPIHHVPEHFPQLQQHQQQFEQQLHHPISGQQRSAGGGGDGANPVPSTLNPDAASTFAETTAAHVA |
| no binding | UNR (protein, UniProt B7Z0E2 1-1039) MNTQSKVYRTGEEIYDNLPCDSYFNMNAIRNLGIPTTFPTIGTFTLDSTTLGLQPQGQGPSPQQQQHQQQQQQQQQQHQQNMHHHQHQQQHMQQQQQQQQHQQQHQQQQHQQQQQHQQQQQQQQQHPTIGMFDANEVNDVIQNPPQIGVFQSNSVLTNGAGSGSSIFGSQSSNSSAAAADPSQTTRETGIIEKLLHSYGFIQCCERQARLFFHFSQFSGNIDHLKIGDPVEFEMTYDRRTGKPIASQVSKIAPEVVLSEERVTGTVTTELRTDSANNVLNSSETTGRISYENRGECFFLPYTKDDVEGNVNLRAGDKVSFQIATNQRGNLGACHIRLENPAQPVKYRGVVCSMKESFGFIERADVVKEIFFHFSEAEGNVELRPGDDVEFTIQTRSSASVPPQGREFACNITRLAPGSVIFEDVDSTVYKGQVLKSLDRNNPVRQNNDPLPGRIRYRALDYSEVEVPFGDKDQKGDFTLRHGDWVQFLLATDRRDQLQRATSIALLDETFKVSGEKREQGTIASLKEGFGFLRCVERQARLFFHFTEVLDTSREIDINDEVEFTVIQEPGLAYNNSRLQAIRIKHLPPNSVQFETLVASNIEGCVTREAPKSPIKSQDRVEGGVITYEHADVKKTIMYFLKDCEKPPRIGERVRFDIYMVKRNKECIAVNVQQVSLHQQQQQQQQQLHLNQSNAGANINQNDQLGGLSNGISSSSSNASLQNGYVMHGSPGGSTSSVGSNNPVHLDEFKMENNNHAGSDAGQVYRGFIAVMKENFGFIETLSHDEEVFFHFSNYMGNPNWLELGQEVEYTLARNGNTSVSGNCLPAENVRMLPKNSIPQPAVLETTHNGVVARPLRCINPDQQEYAGLIEILDELRTTVISQHEFGITSLVNKRDLLQKGDLVSFRIDESGRAACVNAVRQKKRATVDSIKGQFGFLNFEVEDGKKLFFHMSEVQGNTVALHPGDTVEFSVVTNQRNGKSSACNVLKINDRPDRLISRLKLNGDDTVPRLILIRAPKGPQGKGFSVLARHPRIPGNLVE |

The molecules below were run against T1, Wispy (Drosophila melanogaster (endogenous in 90 min embryos)) in the same assay as above.

| binding | Molecule |
| --- | --- |
| binds | Dicer-2 (from UniProt A1ZAW0 1-1722) (enzyme) |
| no binding | R2D2 (protein, UniProt Q9VLW8 1-311) MDNKSAVSALQEFCARTQINLPTYSFIPGEDGGYVCKVELLEIEALGNGRSKRDAKHLAASNILRKIQLLPGIHGLMKDSTVGDLDEELTNLNRDMVKELRDYCVRREMPLPCIEVVQQSGTPSAPEFVACCSVASIVRYGKSDKKKDARQRAAIEMLALISSNSDNLRPDQMQVASTSKLKVVDMEESMEELEALRRKKFTTYWELKEAGSVDHTGMRLCDRHNYFKNFYPTLKKEAIEAINSDEYESSKDKAMDVMSSLKITPKISEVESSSLVPLLSVELNCAFDVVLMAKETDIYDHIIDYFRTMLI |
| no binding | UNR (protein, UniProt B7Z0E2 1-1039) MNTQSKVYRTGEEIYDNLPCDSYFNMNAIRNLGIPTTFPTIGTFTLDSTTLGLQPQGQGPSPQQQQHQQQQQQQQQQHQQNMHHHQHQQQHMQQQQQQQQHQQQHQQQQHQQQQQHQQQQQQQQQHPTIGMFDANEVNDVIQNPPQIGVFQSNSVLTNGAGSGSSIFGSQSSNSSAAAADPSQTTRETGIIEKLLHSYGFIQCCERQARLFFHFSQFSGNIDHLKIGDPVEFEMTYDRRTGKPIASQVSKIAPEVVLSEERVTGTVTTELRTDSANNVLNSSETTGRISYENRGECFFLPYTKDDVEGNVNLRAGDKVSFQIATNQRGNLGACHIRLENPAQPVKYRGVVCSMKESFGFIERADVVKEIFFHFSEAEGNVELRPGDDVEFTIQTRSSASVPPQGREFACNITRLAPGSVIFEDVDSTVYKGQVLKSLDRNNPVRQNNDPLPGRIRYRALDYSEVEVPFGDKDQKGDFTLRHGDWVQFLLATDRRDQLQRATSIALLDETFKVSGEKREQGTIASLKEGFGFLRCVERQARLFFHFTEVLDTSREIDINDEVEFTVIQEPGLAYNNSRLQAIRIKHLPPNSVQFETLVASNIEGCVTREAPKSPIKSQDRVEGGVITYEHADVKKTIMYFLKDCEKPPRIGERVRFDIYMVKRNKECIAVNVQQVSLHQQQQQQQQQLHLNQSNAGANINQNDQLGGLSNGISSSSSNASLQNGYVMHGSPGGSTSSVGSNNPVHLDEFKMENNNHAGSDAGQVYRGFIAVMKENFGFIETLSHDEEVFFHFSNYMGNPNWLELGQEVEYTLARNGNTSVSGNCLPAENVRMLPKNSIPQPAVLETTHNGVVARPLRCINPDQQEYAGLIEILDELRTTVISQHEFGITSLVNKRDLLQKGDLVSFRIDESGRAACVNAVRQKKRATVDSIKGQFGFLNFEVEDGKKLFFHMSEVQGNTVALHPGDTVEFSVVTNQRNGKSSACNVLKINDRPDRLISRLKLNGDDTVPRLILIRAPKGPQGKGFSVLARHPRIPGNLVE |
| binds weakly | Ago-2 (protein, UniProt Q9VUQ5 1-1214) MGKKDKNKKGGQDSAAAPQPQQQQKQQQQRQQQPQQLQQPQQLQQPQQLQQPQQQQQQQPHQQQQQSSRQQPSTSSGGSRASGFQQGGQQQKSQDAEGWTAQKKQGKQQVQGWTKQGQQGGHQQGRQGQDGGYQQRPPGQQQGGHQQGRQGQEGGYQQRPPGQQQGGHQQGRQGQEGGYQQRPSGQQQGGHQQGRQGQEGGYQQRPPGQQQGGHQQGRQGQEGGYQQRPSGQQQGGHQQGRQGQEGGYQQRPPGQQQGGHQQGRQGQEGGYQQRPPGQQQGGHEQGRQGQEGGYQQRPSGQQQGGHQQGRQGQEGGYQQRPSGQQQGGHQQGRQGQEGGYQQRPSGQQQGGHQQGRQGQEGGYQQRPPGQQPNQTQSQGQYQSRGPPQQQQAAPLPLPPQPAGSIKRGTIGKPGQVGINYLDLDLSKMPSVAYHYDVKIMPERPKKFYRQAFEQFRVDQLGGAVLAYDGKASCYSVDKLPLNSQNPEVTVTDRNGRTLRYTIEIKETGDSTIDLKSLTTYMNDRIFDKPMRAMQCVEVVLASPCHNKAIRVGRSFFKMSDPNNRHELDDGYEALVGLYQAFMLGDRPFLNVDISHKSFPISMPMIEYLERFSLKAKINNTTNLDYSRRFLEPFLRGINVVYTPPQSFQSAPRVYRVNGLSRAPASSETFEHDGKKVTIASYFHSRNYPLKFPQLHCLNVGSSIKSILLPIELCSIEEGQALNRKDGATQVANMIKYAATSTNVRKRKIMNLLQYFQHNLDPTISRFGIRIANDFIVVSTRVLSPPQVEYHSKRFTMVKNGSWRMDGMKFLEPKPKAHKCAVLYCDPRSGRKMNYTQLNDFGNLIISQGKAVNISLDSDVTYRPFTDDERSLDTIFADLKRSQHDLAIVIIPQFRISYDTIKQKAELQHGILTQCIKQFTVERKCNNQTIGNILLKINSKLNGINHKIKDDPRLPMMKNTMYIGADVTHPSPDQREIPSVVGVAASHDPYGASYNMQYRLQRGALEEIEDMFSITLEHLRVYKEYRNAYPDHIIYYRDGVSDGQFPKIKNEELRCIKQACDKVGCKPKICCVIVVKRHHTRFFPSGDVTTSNKFNNVDPGTVVDRTIVHPNEMQFFMVSHQAIQGTAKPTRYNVIENTGNLDIDLLQQLTYNLCHMFPRCNRSVSYPAPAYLAHLVAARGRVYLTGTNRFLDLKKEYAKRTIVPEFMKKNPMYFV |
